# Results published in PubChem BioAssay (NCATS).
# Several values for one entry are separate records, joined by “and”; a condition that tells them apart may be missing. Identical values can stand only once. This list was built around the results that the source calls inconclusive (neither active nor inactive); the mix of calls is not that of the screen. For some of these results: Where the call is inconclusive, the potency comes from a doubtful curve fit. Activity calls are given as the source filed them. Unless noted, calls follow the shape of the dose curve; as a rule, active = well fitted curve in the direction sought with a large enough effect; inconclusive = small, poorly fitted or top-dose-only effect, or another doubt; inactive = no such curve, though single readings can be large; an effect the other way counts as inactive or inconclusive.
# Legend:
# [1] = biological target: Glutathione peroxidase 1 (Homo sapiens) (UniProt P07203); experiment: Primary qHTS Assay for Inhibitors of Recombinant Selenoprotein Glutathione Peroxidase 1 (GPX1) (AID 1845191); conditions: activity, negative = inhibition: at 48.8 µM (top of the series); also: potency is read from the fitted curve at half-maximal effect; nearly all actives have a fitted effect of over 65% in size
# Chain of UniProt P07203 (P07203 whole entry, looked up): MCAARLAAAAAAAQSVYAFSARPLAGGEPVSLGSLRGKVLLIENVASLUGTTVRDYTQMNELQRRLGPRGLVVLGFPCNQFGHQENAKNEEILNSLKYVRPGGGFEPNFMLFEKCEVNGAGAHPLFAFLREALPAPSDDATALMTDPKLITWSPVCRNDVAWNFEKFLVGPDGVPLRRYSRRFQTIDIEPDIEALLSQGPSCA
# Procedure, shortened: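 10 nM GPX1 + cpd, 30 min RT; start w/ 1 mM GSH, 0.5 mM cumene hydroperoxide, 0.5 mM NADPH, 100 nM GR, 0.01% BSA; buffer 50 mM Tris-HCl pH 7.5, 2 mM EDTA, 150 mM NaCl; Fl 340/450, 0 & 15 min.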
# [2] = qHTS assay to identify inhibitors of the type 1 interferon - major histocompatibility complex class I in skeletal muscle: Counter screen cell viability and HiBit confirmation (AID 1347412); conditions: iHSKM muscle cells + IFN-b, HiBiT or CellTiter-Glo, 24 h; also: potency is read from the fitted curve at half-maximal effect; nearly all actives have a fitted effect of over 60% in size
# Procedure, shortened: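 CRISPR HLA-B*08:01-HiBit immortalized human myoblasts (C25cl48) stimulated with 4 ng/ml IFN-beta and compounds (12-point 1:3, top 46 uM final) for 24 h at 37 C. Duplicate plates read by HiBit lytic luminescence or CellTiter Glo ATP.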
# [3] = biological target: Cytochrome P450 2D6 (Homo sapiens) (UniProt P10635); experiment: Cytochrome P450 family 2 subfamily D member 6 (CYP2D6) small molecule antagonists: luciferase biochemical (cell-free) qHTS assay (AID 1645840; active = well fitted curve in the direction sought with a large enough effect in the repeat runs; inconclusive = weak or mixed curves; inactive = no such curve, though single readings can be large; an effect the other way counts as inactive or inconclusive; also: nearly all actives have a fitted effect of over 55% in size; also: potency is read from the fitted curve at half-maximal effect; as to activity change, negative = inhibition: % is scaled to controls: 0 for no effect and ±100 for the full control effect)
# Chain of UniProt P10635 (P10635 whole entry, looked up): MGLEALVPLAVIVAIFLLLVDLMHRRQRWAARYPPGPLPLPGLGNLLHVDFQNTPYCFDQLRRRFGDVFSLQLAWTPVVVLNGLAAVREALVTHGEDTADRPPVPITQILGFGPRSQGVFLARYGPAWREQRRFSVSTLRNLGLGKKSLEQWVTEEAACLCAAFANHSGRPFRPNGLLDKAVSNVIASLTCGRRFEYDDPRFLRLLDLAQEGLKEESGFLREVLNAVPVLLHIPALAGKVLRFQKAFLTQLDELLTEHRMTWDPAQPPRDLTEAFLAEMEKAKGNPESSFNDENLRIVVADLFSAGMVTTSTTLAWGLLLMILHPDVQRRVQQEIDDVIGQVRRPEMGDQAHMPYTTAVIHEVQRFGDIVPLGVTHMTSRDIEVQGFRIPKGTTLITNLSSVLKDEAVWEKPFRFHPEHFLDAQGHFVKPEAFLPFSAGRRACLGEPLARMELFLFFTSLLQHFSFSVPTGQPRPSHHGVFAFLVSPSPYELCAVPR
# Procedure, shortened: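 P450-Glo luminescent screen: recombinant CYP2D6 enzyme–proluciferin substrate mix preincubated with compound 10 min at room temperature, then NADPH regeneration added for 1 h at room temperature. Detection reagent added for 20 min; luciferin light read as relative luminescence units.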
# [4] = tested on: Nanoluciferase (engineered Oplophorus gracilirostris luciferase); experiment: Primary Nanoluciferase (NLuc) qHTS assay for identification of artifact compounds. (AID 1845222);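 also: NLuc secreted into diluted conditioned medium of S16 cells; potency is read from the fitted curve at half-maximal effect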
# Procedure, shortened: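 NLuc from S16 cell medium (1:55) plus test compounds, 15 min, room temperature. Luminescence after Nano-Glo (1:100) addition, 5 min.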
# [5] = Primary redox qHTS assay for identification of artifact compounds. (AID 1845223); conditions: Amplex Red/HRP redox cycling with DTT, fluorescence; redox activity (% of DA3003): at 53.8 µM (top of the series); also: potency is read from the fitted curve at half-maximal effect
# Procedure, shortened: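 Amplex Red (25 uM) and HRP (250 mU/mL) in HBSS, with compounds for 15 min, then 250 uM DTT for 30 min, room temperature, dark. Fluorescence 525/598 nm read; normalized to DMSO and 10 uM DA3003; Hill fit.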
# [6] = tested on: HeLa; experiment: Primary qHTS to identify gynecologic anti-cancer compounds using libraries of approved drugs and bioactive compounds (AID 1345084); conditions: Gynecologic cancer cell panel viability, ATPlite luminescence, 48 h; activity change, negative = cytotoxicity: at 57.5 µM (top of the series); also: nearly all actives have a fitted effect of over 55% in size; also: potency is read from the fitted curve at half-maximal effect; as to activity change, negative = cytotoxicity: % is scaled to controls: 0 for no effect and ±100 for the full control effect
# Procedure, shortened: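 Five-concentration response, 48 h; readout is ATP-driven luciferase luminescence.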
# [7] = biological target: Cytochrome P450 2C9 (Homo sapiens) (UniProt P11712); experiment: Cytochrome P450 family 2 subfamily C member 9 (CYP2C9) small molecule antagonists: luciferase biochemical (cell-free) qHTS assay (AID 1645842; active = well fitted curve in the direction sought with a large enough effect in the repeat runs; inconclusive = weak or mixed curves; inactive = no such curve, though single readings can be large; an effect the other way counts as inactive or inconclusive; also: potency is read from the fitted curve at half-maximal effect; nearly all actives have a fitted effect of over 55% in size)
# Chain of UniProt P11712 (P11712 whole entry, looked up): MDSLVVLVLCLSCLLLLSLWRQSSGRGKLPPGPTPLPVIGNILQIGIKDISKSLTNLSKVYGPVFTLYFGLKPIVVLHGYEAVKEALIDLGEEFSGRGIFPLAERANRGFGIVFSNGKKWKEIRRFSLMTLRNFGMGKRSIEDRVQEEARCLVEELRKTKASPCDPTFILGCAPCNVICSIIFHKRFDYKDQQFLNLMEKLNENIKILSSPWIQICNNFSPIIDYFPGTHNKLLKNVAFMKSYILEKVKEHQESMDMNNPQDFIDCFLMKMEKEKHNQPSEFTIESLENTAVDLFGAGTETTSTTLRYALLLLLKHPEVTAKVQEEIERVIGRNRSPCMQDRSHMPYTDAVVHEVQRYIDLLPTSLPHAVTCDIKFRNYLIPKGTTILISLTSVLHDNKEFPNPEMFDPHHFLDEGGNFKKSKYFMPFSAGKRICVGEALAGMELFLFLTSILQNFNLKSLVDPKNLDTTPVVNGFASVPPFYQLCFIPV
# Procedure, shortened: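 Luminescence, after 20 min with luciferin detection reagent, reflected CYP2C9 turnover during a 1 h NADPH-driven reaction at 37C. Enzyme-substrate mix contained 0.4% bovine serum albumin and was preincubated with compound 10 min at room temperature.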
# [8] = biological target: Calcium and integrin-binding protein 1 (Homo sapiens) (UniProt Q99828); experiment: Primary qHTS for Identification of Calcium Integrin Binding Protein 1 (CIB1) Competitor (AID 1508620); also: potency is read from the fitted curve at half-maximal effect
# Chain of UniProt Q99828 (Q99828 whole entry, looked up): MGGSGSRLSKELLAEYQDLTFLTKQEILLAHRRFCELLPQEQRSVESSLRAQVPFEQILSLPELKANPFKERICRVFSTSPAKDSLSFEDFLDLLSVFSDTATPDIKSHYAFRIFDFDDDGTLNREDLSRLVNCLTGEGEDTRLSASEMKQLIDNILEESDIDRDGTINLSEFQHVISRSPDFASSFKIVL
# Procedure, shortened: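 CIB1-GST (1 uM final) and compound incubated 15 min at room temperature before adding FITC-alphaIIb peptide tracer (100 nM final). Competition for binding read by fluorescence polarization (ex 480, em 540) after another 15 min at room temperature.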
# [9] = qHTS of pediatric cancer cell lines to identify multiple opportunities for drug repurposing: Primary screen for NB1643 cells (AID 1347099); also: potency is read from the fitted curve at half-maximal effect; nearly all actives have a fitted effect of over 50% in size
# Procedure, shortened: (§1)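 Plated cells (500-1,000 per well, growth media) were allowed to settle for 5 hours, treated with compound dilutions for 48 hours, then lysed with CellTiter-Glo for 15 min at room temperature before luminescence reading.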
# [10] = qHTS of pediatric cancer cell lines to identify multiple opportunities for drug repurposing: Primary screen for BT-12 cells (AID 1347101); also: potency is read from the fitted curve at half-maximal effect; nearly all actives have a fitted effect of over 25% in size
# Procedure, shortened: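 Cells (500-1,000/well) rested 5 h, then received compounds for 48 h; metabolically active cells were measured by CellTiter-Glo luminescence. Final concentrations spanned up to 46 µM (MIPE, 11-point) or 0.59 nM-46 µM (NPC, 8-point) in primary screens, 11-point in follow-ups.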
# [11] = qHTS of pediatric cancer cell lines to identify multiple opportunities for drug repurposing: Primary screen for RD cells (AID 1347104); conditions: RD rhabdomyosarcoma viability, CellTiter-Glo luminescence, 48 h; activity change, negative = cytotoxic: at 46 µM (top of the series); also: potency is read from the fitted curve at half-maximal effect; nearly all actives have a fitted effect of over 55% in size
# Procedure, shortened: as §1
# [12] = qHTS of pediatric cancer cell lines to identify multiple opportunities for drug repurposing: Primary screen for Rh41 cells (AID 1347108); also: potency is read from the fitted curve at half-maximal effect; nearly all actives have a fitted effect of over 70% in size
# Procedure, shortened: as §1
# [13] = tested on: UISO; experiment: qHTS assay to identify novel small-molecules to repurpose for Merkel cell carcinoma treatment (AID 1296009); conditions: MCC and control cell lines, CellTiter-Glo viability, 72 h; activity change, negative = cytotoxicity: at 46 µM (top of the series); also: nearly all actives have a fitted effect of over 60% in size; also: potency is read from the fitted curve at half-maximal effect; as to activity change, negative = cytotoxicity: % is scaled to controls: 0 for no effect and ±100 for the full control effect
# Procedure, shortened: (§2)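 After compound transfer in DMSO, plates were kept 72 hr at 37 degree celsius. Luminescent ATP signal from CellTiter-Glo served as viability measure, normalized against DMSO and no-cell controls.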
# [14] = tested on: WaGa; experiment: as above; conditions: MCC and control cell lines, CellTiter-Glo viability, 72 h; series mostly up to 46 µM
# Procedure, shortened: as §2
# [15] = qHTS of pediatric cancer cell lines to identify multiple opportunities for drug repurposing: Primary screen for NB-EBc1 cells (AID 1347095);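 also: plate controls were DMSO neutral control for no effect and bortezomib for full effect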
# Procedure, shortened: as §1
# [16] = Primary qHTS for small molecule stabilizers of the endoplasmic reticulum resident proteome: Secreted ER Calcium Modulated Protein (SERCaMP) assay (AID 1508630); conditions: SH-SY5Y GLuc-SERCaMP (Gaussia luciferase released on ER calcium loss) secretion, thapsigargin, luminescence; activity change, negative = inhibition: at 38.4 µM (top of the series) unless noted; also: potency is read from the fitted curve at half-maximal effect
# Procedure, shortened: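 GLuc-SERCaMP-expressing SH-SY5Y cells, pretreated 16 h with compound, are challenged with thapsigargin to empty ER calcium stores; after 4 h, coelenterazine is added directly to the medium and luminescence is imaged.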
# [17] = A High-Content qHTS Against Drug Library for the Identification of Small Molecules that Inhibit DYT1 Early Onset Primary Dystonia-Associated Cell Pathology (AID 1645839; calls by dose curve)
# Procedure, shortened: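 In this high-content image screen, delE TorsinA mislocalization in inducible Flp-In 293 cells is scored as %pathology, with cell count serving as the counterscreen. Compound exposure lasts 48 h under tetracycline induction in reduced-serum medium.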
# [18] = biological target: Phospholipid hydroperoxide glutathione peroxidase GPX4 (Homo sapiens) (UniProt P36969); experiment: Primary qHTS Assay for Inhibitors of Recombinant Selenoprotein Glutathione Peroxidase 4 (GPX4) (AID 1845192); also: potency is read from the fitted curve at half-maximal effect; nearly all actives have a fitted effect of over 65% in size
# Chain of UniProt P36969 (P36969 whole entry, looked up): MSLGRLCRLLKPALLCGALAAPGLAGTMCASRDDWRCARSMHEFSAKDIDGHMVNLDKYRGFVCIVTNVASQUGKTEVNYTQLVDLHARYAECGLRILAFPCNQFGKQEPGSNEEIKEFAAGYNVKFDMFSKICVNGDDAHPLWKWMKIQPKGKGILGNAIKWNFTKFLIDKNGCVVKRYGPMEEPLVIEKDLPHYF
# Procedure, shortened: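 NADPH consumption, followed by fluorescence at 340/450 nm between 0 and 15 min, reports GPX4 activity via coupled glutathione reductase (100 nM). Enzyme 200 nM was pre-exposed to compound 30 min; 0.5 mM cumene hydroperoxide and 1 mM GSH served as substrates.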
# [19] = qHTS to identify inhibitors of the type 1 interferon - major histocompatibility complex class I in skeletal muscle: primary screen against the NCATS Mechanism Interrogation Plate v5.0 (MIPE) Libary (AID 1347411); conditions: iHSKM cells + IFN-b, HiBiT-tagged MHC-I luminescence, 24 h; activity change, negative = inhibition: at 45.8 µM (top of the series); also: potency is read from the fitted curve at half-maximal effect; nearly all actives have a fitted effect of over 65% in size
# Procedure, shortened: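 Cells were genome-edited human myoblasts carrying a HiBit tag on endogenous HLA-B. They were treated with IFN-beta (4.0 ng/ml) and titrated compounds (top 46 uM) for 24 hrs before lytic HiBiT detection.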
# Tags tell the direction and shape of the fitted curve.
compound,measurement,setting,value
O=C(Nc1ccc(Cl)cc1F)c1ccccc1O,Potency,[1],"inconclusive: 16.1 µM [inhibitor, single point]"
COc1cccc(-c2cc(F)ccc2C2Cc3nc(N)nc(C)c3C(=O)N2)n1 (stereo not drawn),Potency,[2]; HiBiT,active: 22.2 nM
same,Potency,[2]; Viability,"inconclusive: 157 nM [cytotoxic, full curve]"
NC(=O)c1ccccc1Nc1ccnc(Nc2cccc(O)c2)n1,Potency,[2]; Viability,"inconclusive: 11100 nM [cytotoxic, partial curve, poor fit]"
Cc1cc(NC(=O)c2cccc(NC(=O)/C=C/CN(C)C)c2)ccc1Nc1nccc(-c2cccnc2)n1,Potency,[3],active: 10.7 µM
same,Potency,[4],"inconclusive: 26.9 µM [inhibitor, partial curve, poor fit]"
same,Potency,[5],"inconclusive: 8.44 µM [activator, partial curve, poor fit]"
C[C@@H]1O[C@@H](O[C@H]2[C@H](O[C@H]3CO[C@@H](O[C@H]4CC[C@@]5(C)C(CC[C@]6(C)C5CC[C@]57OC[C@@]8(CC[C@](C)(CO)CC85)[C@H](O)C[C@]76C)C4(C)C)[C@H](O[C@@H]4O[C@H](CO)[C@@H](O)[C@H](O)[C@H]4O)[C@H]3O)O[C@H](CO)[C@@H](O)[C@@H]2O)[C@H](O)[C@H](O)[C@H]1O (stereo partly drawn),Potency,[5],"inconclusive: 1.42 µM [activator, full curve]"
same,"activity change, negative = cytotoxicity",[6],inactive: 0% [at 11.6 µM]
CCOC(=O)Nc1cc(-c2ccc(C)c(NS(C)(=O)=O)c2)nn2c(C)nnc12,Potency,[7],"inconclusive: 16.9 µM [inhibitor, partial curve, poor fit]"
same,Potency,[6],"inconclusive: 10 µM [cytotoxic, partial curve, poor fit]"
COc1cc(O)c2c(c1)/C=C/C[C@H](O)[C@H](O)C(=O)/C=C\C[C@H](C)OC2=O,Potency,[8],"inconclusive: 25.1 µM [inhibitor, partial curve, poor fit]"
same,Potency,[5],"inconclusive: 15 µM [activator, partial curve]"
CC(C)C[C@H](C(=O)O)c1cc(-c2ccc(C(F)(F)F)cc2)cc(-c2ccc(C(F)(F)F)cc2)c1,Potency,[3],"inconclusive: 37.9 µM [inhibitor, single point]"
same,Potency,[7],"inconclusive: 23.9 µM [inhibitor, single point]"
same,Potency,[6],"inconclusive: 17.8 µM [cytotoxic, partial curve, poor fit]"
C[C@H](NCc1ccc(OCc2cccc(F)c2)cc1)C(N)=O,Potency,[9],active: 14.8 µM
same,Potency,[10],"inconclusive: 30.6 µM [cytotoxic, single point]"
same,Potency,[11],active: 16.6 µM
same,Potency,[12],active: 18.7 µM
same,Potency,[13],active: 16.6 µM
same,Potency,[14],active: 18.7 µM
O=C(O)[C@H](Cc1ccc(Nc2nccc3ccncc23)cc1)NC1=C(Br)C(=O)C12CCCCC2,Potency,[3],inactive
same,Potency,[7],"inconclusive: 15.1 µM [inhibitor, partial curve]"
same,Potency,[5],"inconclusive: 11.9 µM [activator, partial curve]"
Cc1cc2nc(NCCCO)n(CC(=O)c3cc(C(C)(C)C)c(O)c(C(C)(C)C)c3)c2cc1C,Potency,[3],"inconclusive: 23.9 µM [inhibitor, single point]"
CN(C)CC1CCn2c(c(C3=C(c4cn(C)c5ccccc45)C(=O)NC3=O)c3ccccc32)C1 (stereo not drawn),Potency,[8],"inconclusive: 56.2 µM [inhibitor, partial curve, poor fit]"
same,Potency,[4],"inconclusive: 16.9 µM [inhibitor, partial curve, poor fit]"
same,Potency,[5],"inconclusive: 3.36 µM [activator, full curve, poor fit]"
CO/N=C(\C(=O)N[C@@H]1C(=O)N2C(C(=O)O)=C(CSc3nc(=O)c(O)nn3C)CS[C@H]12)c1csc(N)n1,Potency,[15],inactive
same,Potency,[16],"inconclusive: 31.6 µM [inhibitor, single point]"
same,Potency,[17],inactive
same,Potency,[3],"inconclusive: 24.5 µM [inhibitor, single point]"
same,Potency,[1],active: 9.04 µM
same,Potency,[18],"inconclusive: 32.1 µM [inhibitor, single point]"
same,Potency,[13],inactive
CCCCNc1ncc2c(-c3ccc(CN4CCN(C)CC4)cc3)cn(C3CCC(O)CC3)c2n1 (stereo not drawn),Potency,[19],"active: 9.3 µM and inconclusive: 23.4 µM [inhibitor, partial curve, poor fit]"
same,Potency,[3],"inconclusive: 21.3 µM [inhibitor, single point]"
same,Potency,[5],"inconclusive: 9.47 µM [activator, partial curve]"
same,Potency,[2]; HiBiT,active: 3.94 µM and active: 14 µM
same,Potency,[2]; Viability,"active: 7.01 µM and inconclusive: 14 µM [cytotoxic, partial curve]"
COC(=O)/C=C/C(=O)N(O)CCCCNCc1ccc(COC(=O)Nc2cccc3ccccc23)cc1,Potency,[6],inactive
CN(C)CCN(Cc1ccc(-c2ccc(CNCCc3ccccc3)cc2)cc1)C(=O)CCC1CCCC1,Potency,[6],"inconclusive: 39.8 µM [cytotoxic, single point]"
